In the supplement of paper PMC3334620:
Over roughly 33,000 sequences, “E-score (-0.5 to 0.5)” has its median near -0.011; the highest 2% begin near 0.28. Some of the results follow.

Each sequence was assayed against T1, Gcr1 (UniProt P07261) (assay: PBM E-score (8-mer binding enrichment) (E-score (-0.5 to 0.5)); higher = stronger / more preferred TF binding; most listed sequences are background and not binding sites). Details: protein concentration: 100 nM; construct: GST-full length.
T1 sequence: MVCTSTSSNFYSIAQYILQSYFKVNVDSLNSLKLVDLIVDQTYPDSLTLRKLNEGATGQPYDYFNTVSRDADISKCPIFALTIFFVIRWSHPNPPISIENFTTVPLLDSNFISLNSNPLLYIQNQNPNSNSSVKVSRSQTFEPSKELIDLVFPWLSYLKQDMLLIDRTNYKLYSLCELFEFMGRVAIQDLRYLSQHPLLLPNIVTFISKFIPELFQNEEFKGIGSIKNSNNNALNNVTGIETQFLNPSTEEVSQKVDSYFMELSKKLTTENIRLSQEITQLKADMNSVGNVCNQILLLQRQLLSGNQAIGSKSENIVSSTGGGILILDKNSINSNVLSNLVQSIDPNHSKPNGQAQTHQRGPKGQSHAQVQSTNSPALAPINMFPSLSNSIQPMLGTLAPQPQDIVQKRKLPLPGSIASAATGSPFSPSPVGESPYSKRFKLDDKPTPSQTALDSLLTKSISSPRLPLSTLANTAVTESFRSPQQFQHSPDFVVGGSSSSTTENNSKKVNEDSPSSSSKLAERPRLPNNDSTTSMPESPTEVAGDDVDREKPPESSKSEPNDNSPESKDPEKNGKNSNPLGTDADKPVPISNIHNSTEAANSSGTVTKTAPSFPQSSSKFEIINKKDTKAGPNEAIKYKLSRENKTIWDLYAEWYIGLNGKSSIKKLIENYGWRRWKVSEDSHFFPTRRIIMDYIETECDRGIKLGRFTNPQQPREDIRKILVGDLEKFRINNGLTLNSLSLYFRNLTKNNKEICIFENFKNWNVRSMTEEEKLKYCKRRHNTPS
Summary of the method: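 Full-length yeast transcription factors or their DNA-binding domains, GST-tagged and expressed with PURExpress, were applied at about 100-200 nM to universal all-10-mer Agilent arrays. These arrays had been made double-stranded by primer extension on fresh or once-stripped slides. Detection used fluorescent anti-GST, normalisation used masliner, and E-scores for ungapped eight-base words pooled with reverse complements came from the Universal PBM Analysis Suite.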

Row | Sequence | PBM E-score
1 | GTCATACA | -0.0119
2 | AATAGTAG | 0.134
3 | ACAAAGCT | 0.0432
4 | GTCGGCTA | -0.0337
5 | GGATCGTA | 0.0973
6 | CCATTGAA | 0.0432
7 | CTATCAGC | -0.02
8 | ACACTCCA | -0.0825
9 | GGATCTAA | 0.136
10 | CGCTTACG | -0.116
11 | ATTACGTG | -0.0622
12 | GAGGGATA | -0.201
13 | CTAACCCC | -0.149
14 | AGACGGCG | 0.0416
15 | CTCATGAC | -0.175
16 | AACTAGCG | -0.046
17 | AATCTGTG | -0.0578
18 | AGGCGTGG | -0.0766
19 | AACCAGTC | -0.0791
20 | CCAAGCAG | 0.125
21 | CTTGACTA | -0.323
22 | AGCTGGAA | 0.226
23 | CCGAAACA | 0.162
24 | ACACGTCA | -0.2
25 | ATTCCTCA | 0.144

Row | Sequence | PBM E-score
26 | ATAGATAG | -0.199
27 | ACGCACAT | -0.0534
28 | TACGGGCA | 0.166
29 | CTCGCGAC | -0.171
30 | CCAAGACA | -0.0148
31 | AGTATCAT | -0.118
32 | AGTCTTTA | -0.275
33 | GAAGACGA | 0.198
34 | ACGTTGCA | -0.015
35 | ATTCGAAT | 0.0645
36 | ATGCCGAA | 0.109
37 | CCACCCTC | -0.00165
38 | CCCAGGAA | 0.158
39 | CTTGGCTA | -0.0897
40 | AACCTGTA | 0.211
41 | AGTGGACG | 0.315
42 | ACTATTTG | 0.0391
43 | GACCCCGC | -0.143
44 | AACCACAA | 0.213
45 | GCGCCTTA | 0.0139
46 | AGGTACAA | -0.0348
47 | CGAAGCCA | 0.272
48 | ATTCCGAC | 0.0519
49 | CGACAGAC | -0.0432
50 | CGGAGGCA | 0.0696

Row | Sequence | PBM E-score
51 | AAATCTCT | 0.153
52 | GTAACTAC | 0.0084
53 | AACTAGGT | 0.15
54 | CCTGGACG | 0.0441
55 | ACGCAATC | 0.0168
56 | ACGTTCCA | -0.00347
57 | AATGACTG | -0.00859
58 | AACTGAGG | -0.00704
59 | GGTGAACA | -0.0564
60 | AGCAATTA | 0.0255
61 | ACCAGATA | 0.0838
62 | AGACTAAT | 0.0195
63 | TAGAGTGA | 0.0444
64 | CATGTAAC | 0.0723
65 | ACCTGCTC | -0.0301
66 | CCCCACTC | 0.152
67 | AGCTGGCG | 0.00555
68 | GCAATTCA | -0.221
69 | GAGCCGTA | 0.0183
70 | CGCACGTC | -0.0974
71 | CACCAATA | 0.167
72 | CTGGGGTC | 0.0575
73 | CGCTATTA | 0.168
74 | AGGTATCG | 0.019
75 | AAGTCTAT | 0.0558

Row | Sequence | PBM E-score
76 | CATTTGGG | 0.216
77 | CAAAGGAA | 0.104
78 | ACCGTCAC | -0.219
79 | CTTAGGCA | -0.0505
80 | TATGCGAA | 0.0856
81 | CGTTGTAG | -0.147
82 | AACGCTTA | -0.126
83 | GACATCTC | -0.116
84 | AAGAGGTA | -0.13
85 | AAGCCAGT | -0.0499
86 | AGTCGATG | -0.0398
87 | ATCGCTCG | 0.09
88 | ACTACACT | -0.0164
89 | ACGATAAC | 0.0529
90 | ACTGGAAC | 0.301
91 | TTTATAAA | 0.142
92 | AATCCCTG | 0.167
93 | TGGACACA | -0.0955
94 | GCAGGGTA | -0.111
95 | ATGAGGTG | -0.0423
96 | GTGGCCAC | -0.0489
97 | GACGGTGC | -0.0434
98 | AGCGTTGA | -0.381
99 | GAGGCAAA | -0.049
100 | AAGACGAG | -0.267

Row | Sequence | PBM E-score
101 | ATGTCACG | 0.0881
102 | CGATGATC | -0.106
103 | ACTCGCGG | -0.102
104 | AGGGAGGC | -0.116
105 | CCTAGCGA | -0.154
106 | ATTATAAA | 0.0621
107 | GAGGTTGA | 0.0451
108 | ACTGCATC | -0.111
109 | CGGTTAAA | -0.039
110 | GCAGAGAC | -0.0616
111 | GAGTACGC | -0.259
112 | TTGAGCAA | -0.0965
113 | AAGCCCCG | 0.129
114 | AATTTGAC | 0.0583
115 | GACTCAGA | -0.127
116 | CAGACCAC | -0.158
117 | TACCGAGA | 0.027
118 | ACCACCGA | -0.191
119 | CGACAAAA | 0.213
120 | CTGGACAA | -0.0593
121 | CAACCCAG | 0.00319
122 | AACCTTGG | -0.0368
123 | CGCATTAA | 0.0367
124 | CCTCCTGC | -0.0964
125 | ACCATCTC | -0.0298

Row | Sequence | PBM E-score
126 | CCCTCACA | -0.208
127 | CCGATACC | 0.0297
128 | TCCAGAGA | -0.0181
129 | TCAATAAA | 0.0698
130 | CTTTTGGA | 0.194
131 | AGAGGACC | -0.188
132 | GGTTTTGA | -0.194
133 | GGTTCAGA | -0.0928
134 | AGTGCGAT | 0.142
135 | TCTGCCCA | -0.249
136 | CGAACAAA | -0.0237
137 | TATTCGCA | 0.144
138 | GTATCGAA | 0.115
139 | CTTTTCGA | -0.00691
140 | GCATGGTA | 0.103
141 | AAAGAACT | -0.182
142 | CTTCACGA | -0.0926
143 | AGTATCGC | 0.161
144 | ATTCAGGA | 0.282
145 | ATAGAGGC | 0.174
146 | CCATATGA | 0.0373
147 | TCTCTAAA | 0.00221
148 | GCGGCGCC | 0.324
149 | GCACGCCA | -0.0682
150 | ATTGTTCG | -0.0518

Row | Sequence | PBM E-score
151 | CAACCGAG | -0.266
152 | GCTCGAAA | 0.036
153 | ATCTCCTG | 0.115
154 | CCCACCGC | -0.127
155 | GACCTCAA | -0.144
156 | CAGCGAAG | -0.173
157 | AAAGCTGT | -0.0926
158 | GCCAATAA | 0.201
159 | CTTCTTAC | -0.0205
160 | TATAAAGA | -0.0258
161 | CCCGGCCC | 0.0317
162 | ACTAAGTC | -0.0346
163 | ACTATCGC | -0.164
164 | GCGGGGCC | 0.131
165 | ACAGTCCG | -0.19
166 | ACCCTATG | -0.057
167 | CGTATTAA | 0.114
168 | AGCTAGGG | 0.02
169 | ACTCTCGA | -0.111
170 | CAGCCCAC | -0.0398
171 | AACAAAAT | 0.119
172 | CAGGCTCC | 0.119
